To fix the notation:
B1: LINE1-mini (parent)
chain: GGCAGAGCUCAACACAGCGUGGCAAAGUGGCUGUGGCUAGACUGCC

Self-cleavage data for 167 variants are collected here from the RNAGym collection of RNA variant scans (doi:10.7554/elife.90254).

The source gives no read counts; variants with many changes may rest on few reads.

The variants in this series derive from B1. The series can be described thus: self-cleavage, relative activity (ratio to wild type); higher = more cleavage; in vitro, sequencing; the parent is a self-cleaving ribozyme.
As to C23A G27U G30U G33U, the self-cleavage was 0.23.

As for G21C U34C A39G, the self-cleavage is 0.09.

Consider G21U G29U G33U G35U, for which the self-cleavage was determined as 0.05.

In the case of G22A G36A G44A, the self-cleavage stood at 0.45.

Turning to C23A G29U G30U A41C C45G, the self-cleavage is 0.03.

C23A A24C C31A U32G: the self-cleavage turned out to be 0.02.

Take G22U G29A A39C: the self-cleavage came out at 0.24.

As to C23G G27C G29U, the self-cleavage is 0.15.

For the variant C23G U34G G40C, the self-cleavage turned out to be 0.07.

For C23A A26U A39U, the self-cleavage stood at 0.39.

With G22C G29C G33U A41G, the self-cleavage was 0.12.

Consider G22U U34C C46A, for which the self-cleavage came out at 0.23.

On to G22U G27U U34C G35C, for which the self-cleavage was 0.26.

Turning to C23A U28G G33A G44A C45A, the self-cleavage is 0.03.

For G21U G22U C42G, the self-cleavage turned out to be 0.02.

In the case of G21C G33A G44C, the self-cleavage worked out at 0.02.

Turning to G21U A26G G27A C37U, the self-cleavage turned out to be 0.01.

Consider C23U A25G C42G, for which the self-cleavage was found to be 0.02.

Regarding G22A G29U C37G, the self-cleavage stood at 0.01.

For G22C U32A G35U G36A C45U, the self-cleavage was 0.02.

Regarding C23A G27U U28G, the self-cleavage is 0.13.

Consider C23G U32G C37G A39U G40A, for which the self-cleavage turned out to be 0.02.

As for G22U C37G C45A, the self-cleavage was found to be 0.05.

Turning to C23G C31U C46A, the self-cleavage was determined as 0.08.

On to G21U A26U G27C, for which the self-cleavage was 0.41.

On to A24C A39U C45A, for which the self-cleavage is 0.02.

Regarding G21U G33A C46U, the self-cleavage came to 0.11.

In the case of G21U G33A C46G, the self-cleavage was determined as 0.04.

In the case of G21U A26U U34G, the self-cleavage was 0.17.

Consider G22U A25U C31G A39G C46A, for which the self-cleavage was 0.04.

G22U C23U U32A A39C: the self-cleavage was determined as 0.59.

As to G21U G27U A39U, the self-cleavage is 0.78.

On to G21U U28G C46A, for which the self-cleavage is 0.47.

Consider G22A C31U G44A C46G, for which the self-cleavage was 0.03.

In the case of C23A C31U G40A, the self-cleavage came to 0.25.

Turning to C23G A25G G29A, the self-cleavage stood at 0.49.

With G22U G30U C31A U32G G35U, the self-cleavage came to 0.03.

On to A24C C31U C46U, for which the self-cleavage turned out to be 0.18.

In the case of C23A G27C G35C G36C, the self-cleavage came to 0.12.

Consider G21U C23U G33U, for which the self-cleavage amounted to 0.19.

Take C23A G30U G36C C37A: the self-cleavage was found to be 0.08.

As for G22U G27C G35C, the self-cleavage was 0.16.

Take G22U A25U C37G: the self-cleavage is 0.23.

With C23A G40U G44C C45U, the self-cleavage came out at 0.03.

For G21U U28C C45U, the self-cleavage was found to be 0.22.

As to C23G G27A G33A, the self-cleavage is 0.07.

For the variant G21C G27U G33C A39G G40U, the self-cleavage worked out at 0.13.

For G22A G36A C46U, the self-cleavage worked out at 0.15.

In the case of G21C G29A C42U, the self-cleavage worked out at 0.41.

For the variant C23G A26U G27U G30A G35U, the self-cleavage stood at 0.02.

As for G22C U34C G35U C45U, the self-cleavage turned out to be 0.02.

For the variant C23A A26C G35A G40A C42A, the self-cleavage stood at 0.09.

Consider G21U G30U C37G U38G, for which the self-cleavage worked out at 0.01.

In the case of G21U G36A C37U C45U, the self-cleavage stood at 0.08.

As for C23A C31U U38A G40C, the self-cleavage stood at 0.1.

As to G21U C23U G35U U38A, the self-cleavage is 0.32.

As for G22U G35U C45U, the self-cleavage was determined as 0.07.

As for G22U A26C G27C C31A C42G, the self-cleavage came to 0.05.

For the variant G22C U32G G33U, the self-cleavage came to 0.07.

As to G21U G33U U34G G44U, the self-cleavage turned out to be 0.06.

For the variant G22U G30A C42U C46G, the self-cleavage came to 0.16.

C23G C37U A39C: the self-cleavage worked out at 0.46.

On to G21U G27C U28G, for which the self-cleavage was 2.34.

In the case of C23G G27C C31G, the self-cleavage stood at 0.96.

G22U G35U G40U: the self-cleavage stood at 0.02.

For G22C G27A G30A, the self-cleavage is 0.52.

As for G22A G27U U28G, the self-cleavage was 0.24.

As to A24C A39U C42G, the self-cleavage is 0.02.

Turning to C23G U38C A39U A41C, the self-cleavage came out at 0.05.

Regarding G22C G35C C37A C45U, the self-cleavage turned out to be 0.05.

C23U A24U G30U C31A A41G: the self-cleavage is 0.04.

Turning to G22U A26U U38G A41U G44A, the self-cleavage stood at 0.01.

Turning to G22U G30U C45A, the self-cleavage came to 0.32.

As to G22A G29C C31U C45A, the self-cleavage is 0.2.

Turning to G22A U38G C42U, the self-cleavage is 0.02.

G22A C31A U43C: the self-cleavage was 0.07.

On to C23U U28C U34C G35U G36C C45U, for which the self-cleavage came to 0.04.

As for G22U A26U A41G, the self-cleavage was found to be 0.53.

On to G22U A39C A41G C42A, for which the self-cleavage is 0.06.

Consider C23G U34C C45U, for which the self-cleavage turned out to be 0.25.

Consider G22U G35A G40U U43C, for which the self-cleavage was found to be 0.09.

For the variant G21U U28C U34G, the self-cleavage amounted to 0.16.

G21U G35U U43A: the self-cleavage came out at 0.02.

With G22U A24G G35C, the self-cleavage was 0.02.

As for G21C G30A C31A A39G, the self-cleavage worked out at 0.12.

In the case of G22C C23A G40A, the self-cleavage stood at 0.14.

Regarding G21U U34C C45G, the self-cleavage turned out to be 0.03.

G21C G40A C46A: the self-cleavage stood at 0.06.

For C23A U28G U34G U43A, the self-cleavage came out at 0.04.

On to C23G C31A G44A, for which the self-cleavage stood at 0.06.

As for G21U A26C G33U, the self-cleavage was found to be 0.13.

For G22C U34C C37A C42A, the self-cleavage came to 0.01.

For C23G U32A G33U, the self-cleavage amounted to 0.01.

On to G21U G22U G40U, for which the self-cleavage is 0.09.

For the variant G22A A24G A25G G33C, the self-cleavage was determined as 0.08.

Consider G22U A26U C37A, for which the self-cleavage turned out to be 0.02.

Consider C23U U32G C45G, for which the self-cleavage is 0.15.

Regarding G22A G33U G44C, the self-cleavage stood at 0.2.

G21U C31G A41U: the self-cleavage is 0.07.

On to C23A A24U G27A U34A, for which the self-cleavage stood at 0.24.

Take C23A G33A G40A: the self-cleavage amounted to 0.05.

Regarding G22U C23A G33C, the self-cleavage was found to be 0.06.

With G21U C23A U32C G33U G35U, the self-cleavage is 0.01.

Take C23U C45G C46A: the self-cleavage was 0.42.

Regarding G22C A26U C37U A39G, the self-cleavage worked out at 0.51.

For the variant C23A A25U A41U G44A, the self-cleavage was found to be 0.05.

For G21U G35A C45U, the self-cleavage worked out at 0.04.

As for G22U G29U G33C U43G, the self-cleavage is 0.

Consider G21C C23U G33A U38A, for which the self-cleavage stood at 0.23.

G22A C23G C37G: the self-cleavage was 0.01.

In the case of C23G U32G G36U, the self-cleavage stood at 0.03.

Regarding G21U U38G C46U, the self-cleavage was 0.07.

Regarding G21C G27U G29C, the self-cleavage came to 0.15.

For the variant G22A C23G G29C G36U, the self-cleavage is 0.02.

For the variant G22U G29U C45A C46U, the self-cleavage is 0.45.

With G22U C37G G44U, the self-cleavage was 0.28.

Take C23U A24U G30U U34G: the self-cleavage was determined as 0.04.

With G21C U38G C42G, the self-cleavage was 0.

On to G22A A26C G27U U32G C42A, for which the self-cleavage was found to be 0.08.

Take G22U A26U G27A: the self-cleavage was 0.46.

G22U G29U G35C C46G: the self-cleavage was found to be 0.02.

Regarding G21C C31U G40U C42U, the self-cleavage came out at 0.03.

On to C23U A24C C31A U32A, for which the self-cleavage stood at 0.04.

With G21U G29U C37A, the self-cleavage came to 0.01.

As for G21U G27A U32C, the self-cleavage came out at 0.11.

On to C23A C37U G40C, for which the self-cleavage is 0.16.

For the variant G22C G35U C46A, the self-cleavage turned out to be 0.04.

In the case of C23A A25U G35A G36C, the self-cleavage was found to be 0.56.

Consider C23U G36U C46A, for which the self-cleavage was determined as 1.03.

On to G22C C23G G36U C37A, for which the self-cleavage is 0.03.

With C23G A25C U28C, the self-cleavage came out at 0.21.

For G22A A39U G44U, the self-cleavage was 0.17.

For G21U G29C C31A, the self-cleavage worked out at 1.29.

As to G21U A26U G33U, the self-cleavage stood at 0.47.

Consider C23G A26C U28C U34C, for which the self-cleavage was determined as 0.05.

Regarding G21U A24G U28G A39U, the self-cleavage turned out to be 0.21.

With G22U U38G C42U, the self-cleavage is 0.01.

In the case of G22U U38G C42G, the self-cleavage is 0.

With G21U G35U A39U, the self-cleavage stood at 0.14.

With G22A G29A G35A, the self-cleavage came out at 0.36.

Turning to G21U C23A U38A, the self-cleavage worked out at 0.57.

In the case of G21U C23U G30C C45U, the self-cleavage was found to be 0.36.

As for G21C G35U G36U, the self-cleavage was 0.26.

In the case of G21U A26G G29U, the self-cleavage came to 0.26.

On to C23A U38A C42A C46A, for which the self-cleavage was determined as 0.03.

In the case of C23G U34G C37A, the self-cleavage was 0.06.

Turning to G22U G33A C42A, the self-cleavage is 0.12.

As for G22C A26C G27U C46A, the self-cleavage was found to be 0.45.

Consider G21U G36A C42U, for which the self-cleavage came to 0.06.

For the variant G21U U28C U38C G40A, the self-cleavage came to 0.01.

For the variant G22U U34G A41C, the self-cleavage came to 0.01.

In the case of G22C U34A G40C, the self-cleavage turned out to be 0.14.

On to G21U C23G A24C A39U G40U C45G, for which the self-cleavage amounted to 0.04.

For G22A C31A G35A, the self-cleavage stood at 0.02.

Regarding G22A C31A G35U, the self-cleavage came to 0.01.

With G22U G29C U34G, the self-cleavage came out at 0.05.

For C23A A26C C46G, the self-cleavage was 0.95.

For G21U U43C C46A, the self-cleavage was 0.05.

Turning to C23A U28G G40C, the self-cleavage came to 0.12.

As to G22U G27A U32G A41C, the self-cleavage came out at 0.04.

As to C23G C45G C46A, the self-cleavage stood at 0.06.

In the case of G21C G22C A24U A41U, the self-cleavage was 1.45.

For the variant G22A U34A G36U, the self-cleavage was 0.02.

G21U U28A G40A: the self-cleavage amounted to 0.15.

For C23A G27A A39C, the self-cleavage came out at 0.09.

Turning to A24C A25C C46A, the self-cleavage turned out to be 0.52.

Turning to C23U A24G C37U A41C, the self-cleavage turned out to be 0.
